According to the supplement of paper PMC11417369:
The list shows a part of the results.

What follows are sequences tested on PfSIP2 AP2 domain 1 (GST-tagged) (assay: gcPBM binding intensity (ln(normalized median fluorescence intensity)); higher = stronger DNA binding).
How it was run: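 Binding intensity values are the highest Masliner-normalised natural-log median intensity among replicate spots of either probe orientation. The binding step lasted 1 h in 1× PBS with 1% milk, 0.2 mg/ml BSA, 0.5% salmon testes DNA and 0.03% Triton X-100, using GST-tagged P. falciparum DNA-binding domains expressed in E. coli on an Agilent 4 × 180k array of primer-extended double-stranded 36-bp intergenic genomic probes plus negative controls. Alexa488 anti-GST antibody and a 488 nm scan detected bound protein.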

Sequence | gcPBM binding intensity (ln)
ATATTTATGTAATGTTTGATTTTTTTTTTATGTGTG [CACACA_negctrl_site1422] | 6.87
ACATATACATACATATGTACATATACATAAATATAT [XGTACX_site1285] | 7.27
CTATACAATAAAAATTGTACATACATATATGTTATA [XGTACX_site5309] | 7.02
ATAATATGTTATTAAGTGCATATTAATTATTATTAT | 8.03
AATTTTTCTTTTTTTTGTACAGAATATATATTTTAT [XGTACX_site1419] | 6.91
AAAAAAAAAATTGAAAGTACACAAATGGGGTATTAT [XGTACX_site3960] | 6.79
TACTGTTTAAAATATACACACATAATCAAAAAAAAA [CACACA_site2510] | 7.07
TATATATTTACATATTGTACAATATAAAAATAATTA [XGTACX_site19] | 7.06
TCGTTATCCATCTTCACACATATATATAGTAATATA [CACACA_site5492] | 7.69
TATGTATAAATATTAACACACAAAAAAAAAAAAAAA [CACACA_site6938] | 6.94
AATAAGCAGAAACACACACACAAAAAAAAAAAAAAA [CACACA_site719] | 6.97
ATATAAACAAAGCAGTGCACGTAAACAAAACATATA [CACACA_negctrl_site1076] | 10.4
GTTTGATAACACCTACAAACTCTTTTTTTTTTTTTT [CACACA_negctrl_site1134] | 6.97
TACGAAAGGTAATATTGTACATTACAAAATTTTATA [XGTACX_site5512] | 6.86
AAATTTATAAATTAAAGTACATATTTCTTGAATATT [XGTACX_site859] | 6.81
TATTAAATTATATAGACACACATTATGTATATATAT [CACACA_site345] | 7.49
TATAGATACACTTTGTGTACATAAAAATTGTATTAA [XGTACX_site7137] | 6.76
CATAATATTAAATCAGTGCAAATATACAGAATAAAT [GTGCAC_site9786] | 7.75
AAATGAAGATTTAAATGTACGAGAGGGTATACAAAT [XGTACX_site5075] | 7.26
GACTTCTCCATATACACACACCAACAAATATAAAAA [CACACA_site7331] | 7.94
AAAGTAAAAATATACTGTACAAATTTTTTCCCCTCT [XGTACX_site171] | 6.94
AAAGAAAGCACATACACACACAAAAAAAAAAAAGAA [CACACA_site776] | 6.98

Sequence | gcPBM binding intensity (ln)
ATTTTTTAAAAAGTAACACACACTCTTATAAATAAC [CACACA_site7668] | 7.08
ATATTTATATACAAATGTACGCATATAATATATATA [XGTACX_site1232] | 7.5
AAACAAAAAAAAAAAAAAAAAAAAAAAAAAAAAAAA [GTGCAC_negctrl_site254] | 7.16
GATGCACTTTAAAAATGTACTTATACCTTTAATTGT [XGTACX_site6395] | 8.07
AGAGATTATAAAATATGTACTAAATATTAAATCTTA [XGTACX_site7050] | 6.62
AAAAAAATATTATAATATATATATATATATATATAT [GTGCAC_negctrl_site399] | 9.54
ATAGAATCTGGTAGCTGTACGAGTCGTAGAGTGCAG [XGTACX_site2026] | 8.04
AATATATACATATATGTACACACATTACAGATGTAC [CACACA_site8227] | 7.06
AGGACTAATATTTGAACACACATATAATATATACAT [CACACA_site3998] | 6.98
ATAACGACCTAGACGTGTACATACAAAGGAATGAAA [XGTACX_site4870] | 6.98
CATACACATAGACACACACACATATATACCTATATA [CACACA_site6644] | 7.34
GAAATGTATATTTTTACATGCAAATAAAATATATAA [TGCATGCA_site439] | 6.83
TTTTTCTTGAATCGAAGTACTTAGGAGGGGATATTT [XGTACX_site2862] | 6.96
ACACAATATATATATTGTACATACACATATTTACTA [XGTACX_site1872] | 7.29
GAATATAAACATATTACACACATCTATAGGTACATT [CACACA_site6983] | 6.94
GTGATTTAATTGTGTTGTACATATTTATAAATAAAA [XGTACX_site8966] | 7.15
AAAAAAAAAAGAAACACACACATTTGTATTTAATAT [CACACA_site5184] | 6.64
TTATTATTATATGAATGTACTTAAAAATACATTTTG [XGTACX_site2959] | 6.87
ATTCTATATACACGCACACACACTTATATATATATA [CACACA_site3322] | 8.97
CCCTTTTCTAAATATTGTACGTATAAATTATATTAC [XGTACX_site7676] | 7.45
GTACAGATAAATATTACACACATTTTCATTTTTAAC [CACACA_site5140] | 6.99
TTGTTCTTTTTTTTTTTATTTTTTAATTTGAAAAGA [CACACA_negctrl_site209] | 7.03

Sequence | gcPBM binding intensity (ln)
AAAAAGAAAAAACGAAGTACAATTATAAGATTATAT [XGTACX_site410] | 6.84
TATGTGCCAAGACACACACACATATTTATATTTATA [CACACA_site6360] | 7.05
TATGAAAAATATCTTTGTACTTAGAAATATATACAC [XGTACX_site5393] | 7.27
ATTTGTTACACTAAATGTACATACATACATATATAT [XGTACX_site6175] | 7.13
TTATAAATTATAGGTACACACAAAAAAAAAAAGAAA [CACACA_site1327] | 7.31
ATAAACATATCAATATGTACATATTTTTGTTTGTAT [XGTACX_site7018] | 6.94
AAACCACAAAATTTTTTATATATGACCAATACATAG [CACACA_negctrl_site277] | 6.97
ATTTATCAATAAAATGCACACACTGTAATATTATTA [CACACA_site3976] | 7.3
TTATAATAGTTAAATGTACACACTAACTACATGGAA [CACACA_site9070] | 7.12
TTCCATATAATTACATGTACACATTTTGAATAATAT [XGTACX_site3692] | 7.2
ATATATATGTATGTATGTACATATTTGAATTTATTT [XGTACX_site8470] | 7.15
AGCACAGACGGACACACACACATATATATATATATA [CACACA_site4341] | 9.69
ACAGATATACATAAAAAAAAAATAATTTTACATATA [CACACA_negctrl_site929] | 6.95
ATGTATGTATAATATACACACTCACAAGCATTCAAA [CACACA_site4306] | 6.83
GTATATATTCATATGGAAAATAAAGGAGAAAACAAG [TGCATGCA_negctrl_site220] | 7.76
TTTGTTTTTTCTTTTTGTACATATACAAGATACGTA [XGTACX_site2309] | 7.05
GTGTTTTTTTTAGATTGTACATATATATATATATAT [XGTACX_site4562] | 9.25
TTTTGTAATTCTCTTCATATAATTTATATATATATA [CACACA_negctrl_site1825] | 9.01
ACCCAACATATGTGTACACAGAAAATAAATATAATA [CACACA_site5901] | 7.66
ATGGTAGTGATTAAAAGTACACGTAATTGTAAAAAT [XGTACX_site387] | 7.07
ATATATATACATACATACCTATGTATATGTGTAATT [GTGCAC_negctrl_site50] | 7.7
TAAACAACTTATAAATGTACACATATTTTAATTACC [XGTACX_site5409] | 7.33

Sequence | gcPBM binding intensity (ln)
AATAAAAACTAAACATGTACGCACATATATATATAT [XGTACX_site8096] | 9.51
TAAGTGCATGAGATATGTACATATATAAAATATATA [XGTACX_site3294] | 8.89
TAAAAAAAAAAAAATACACACACACCGATATATATA [CACACA_site8498] | 7.52
TCATAGTCTTAATGACTACACACCTAACTATGCATG [CACACA_site1839] | 6.85
TTTTTTTCTTTATTAGCACACATAATATTATATATG [CACACA_site8841] | 7
TATATCATTATATAAACACACAATATGTTTTTTATA [CACACA_site3781] | 6.76
ACCTAAAAGGTATAATATATAAATAAAAAAAAAAAT [CACACA_negctrl_site134] | 6.83
AAAATGAACAGACACACACACATATTTATATTTATA [CACACA_site7182] | 6.96
TATTAATCTAATTCATAAAAAATGATCTATTTTGTT [CACACA_negctrl_site1035] | 6.75
AACATTTGATAAGATACACACACAAGGAAAAAAATA [CACACA_site8004] | 7.09
TAGAATAATCTATAAACACACAAACACAACAAAAGA [CACACA_site7861] | 7.4
AGATATTTTATAATTACACACATGAGGTTATTTGAA [CACACA_site1999] | 6.98
TTATAAAAATAATATCGTACAAATGACATAGATGAA [XGTACX_site2570] | 7.01
CATATACATAAACACACACACACATAAATAAATATA [CACACA_site4864] | 7.2
TATAGGTATATATAAGTGCAATATATATGTATATAC [GTGCAC_site9427] | 7.76
GAAAAGCAGATAAATGTGCACATATATGTTTGTATA | 8.45
TATTATTTTTTAAATTGTACAATAAATTATAAAAGG [XGTACX_site1162] | 7.29
ACATAAAATTGTTAAAAAATTGTATAAATAATACAT [XGTACX_negctrl_site557] | 6.81
CAGCTCTTAAAAATTACACACATATACTCATATATA [CACACA_site5757] | 6.72
GGTCTTTTCAACACACGTACATAAAAATATTATACA [XGTACX_site5360] | 8.05
TATATATTGATATGCACACCTATGTATTGATGTATA [CACACA_site1073] | 8.97
AATAATAATAAATATACACACATCATACAATTAACA [CACACA_site3679] | 7.03
